According to the supplement of paper PMC7125110:
± gives the standard error. This sample is rich in variants without activity.

B1: glmS ribozyme (parent)
chain: AUAAAAGCGCCAGAACUACAGAAAUGUAGUUGACGAGGAGGAGGUUUAUCGAAUUUUCGGCGGAUGCCUCCAAA

Key:
Conditions in all cases: with glucosamine-6-phosphate
[1] = variants of: B1; assay: self-cleavage kobs at 640 uM GlcN6P; higher = faster cleavage; RNA array
Outline: (§1)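 Using a hybridised Cy3 probe at 37 °C, barcoded ribozyme variants transcribed in situ by E. coli RNA polymerase on sequenced MiSeq chips were monitored across tiles imaged over ~14 h. The flow contained glucosamine-6-phosphate from 40 μM to 10 mM in HEPES/KCl/Mg(OAc)2 buffer. Signals were normalised to baseline and to non-cleaving reference variants before per-tile medians were fit to one- or two-exponential decays to yield kobs. Weighted Michaelis–Menten fits across concentrations gave kcat and KM.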

[2] = variants of: B1; assay: self-cleavage kobs at 160 uM GlcN6P; higher = faster cleavage; RNA array
Outline: as §1

[3] = variants of: B1; assay: self-cleavage kobs at 10000 uM GlcN6P; higher = faster cleavage; RNA array
Outline: as §1

[4] = variants of: B1; assay: self-cleavage kobs at 2500 uM GlcN6P; higher = faster cleavage; RNA array
Outline: as §1

| Variant | self-cleavage kobs at 640 uM GlcN6P [1] [s⁻¹] | self-cleavage kobs at 160 uM GlcN6P [2] [s⁻¹] | self-cleavage kobs at 10000 uM GlcN6P [3] [s⁻¹] | self-cleavage kobs at 2500 uM GlcN6P [4] [s⁻¹] |
| --- | --- | --- | --- | --- |
| AUAAAAGAGUCAGAACUACAGAAAUGUAGUUGACGAGGAGGAGGUUUAUCGAAUUUUCGGCGGAUGCCUCCAAA [C8A C10U] | < 1e-05 | < 1e-05 | – | – |
| AUAAAAUCGCCAGAACUACAGAAAUGUAGUUGACGAGGAGGAGGUUUAUCGACUUUUCGGCGGAUGCCUCCAAA [G7U A53C] | < 1e-05 | < 1e-05 | < 1e-05 | – |
| AUAAAAUCGCCAGAAUUACAGAAAUGUAGUUGACGAGGAGGAGGUUUAUUGAAUUUUCGGCGGAUGCCUCCAAA [G7U C16U C50U] | < 1e-05 | – | – | < 1e-05 |
| AUAAAAUCGCCAGAACUACAGAAAUGUAGUUGACGACGAGUAGGUUUAUCGAAUUUUCGGCGGAUGCCUCCAAA [G7U G37C G41U] | < 1e-05 | – | – | < 1e-05 |
| AUAAAAGAGCCAGCACUACAGAAAUGUAGUUGACGAGGAGGAGGUUUAUCGAGUUUUCGGCGGAUGCCUCCAAA [C8A A14C A53G] | < 1e-05 | – | – | < 1e-05 |
| AUAAAAGAGCCAGAAAUACAGAAAUGUAGUUGACGAGGAGGAGGUUUAUCGAAGUUUCGGCGGAUGCCUCGAAA [C8A C16A U54G C71G] | < 1e-05 | – | – | – |
| AUAAAAUCGCCAGAUCUACAGAAAUGUAGUUGACGAGGAGGAGGUUUAUCUAAUUUUCGGUGGAUGGCUCCAAA [G7U A15U G51U C61U C67G] | < 1e-05 | < 1e-05 | – | – |
| AUAAAAGAGCCAGAACUACAGAAAUGUAGUUGACGAGGAGGAGGUUUAUCGCAUUUUUGGCUGAUGCCACCAAA [C8A A52C C58U G62U U69A] | < 1e-05 | < 1e-05 | – | < 1e-05 |
| AUAAAAUCGCCAGGACUACAGAAAUGUAGUUGACGAGGAGGAGGGUCAUCGAAUUUUCGGCGGAUGCCUGCAAA [G7U A14G U45G U47C C70G] | < 1e-05 | – | – | – |
| AUAAAAUCGCCAGAACUACAGAAAUGUAGUUGAAGUGGAGGAGGUUUAUCGAAUUUUCGGCGGAUGCCUCCAAA [G7U C34A A36U] | < 1e-05 | – | – | – |
| AUAAAAUCGCCAGAACUACAGAAAUGUAGUUGACGGGGAAGAGGUUUAUCGAUUUUUCGGCGGAUGCCUCCAAA [G7U A36G G40A A53U] | < 1e-05 | – | – | < 1e-05 |
| AUAAAAGAGCCAGAACUACAGAAAUGUAGUUGACGAGGAGGAGGUUUAUCGAAUUUUCGGCGGAUGACCCCAAA [C8A C67A U69C] | < 1e-05 | < 1e-05 | < 1e-05 | – |
| AUAAAAUCGCCAGAACUACAGAAAUGUAGUUGACGAGGAGGAGAUUUAUCGAAUUUUCGGCGGAGGCCUCCAAA [G7U G44A U65G] | < 1e-05 | < 1e-05 | – | < 1e-05 |
| AUAAAAUCGCCAGAACUACAGAAAUGUAGUUGACGAGGAGGAGGUUUAUCGAAUUUUCGGGGGAUGACUCCAAA [G7U C61G C67A] | 0.000105 ± 4.6e-05 | – | – | 0.00214 ± 0.00087 |
| AUAAAAUCGCCAGAACUACAGAAAUGUAGUUGACGAGGAGGAGGUUUAUCGAAUUUUCGGCGGAUGACUCCAAA [G7U C67A] | < 1e-05 | < 1e-05 | – | – |
| AUAAAACCGCCAGAACUACAGAAAUGUAGUUGACGAGCAGGAGGUUUAUCGAAUUUUCGGCGGAUACCUCCAAA [G7C G38C G66A] | < 1e-05 | – | – | < 1e-05 |
| AUAAAACCGCCAGAACUACAGAAAUGUAGUUGACGAGGAGGAGGGUUAUCGAAUUGUCGGCGGAUGCCUCCAAA [G7C U45G U56G] | < 1e-05 | – | < 1e-05 | – |
| AUAAAAUCGCCAGAACUACAGAAAUGUAGUUGACGGGGAGGAGGUUUAUCGAAUCUUCGGCAGUUGCCUGCAAA [G7U A36G U55C G62A A64U C70G] | < 1e-05 | – | – | < 1e-05 |
| AUAAAAUCGCCAGGACUACAGAAAUGUAGUUGACGAGGAUGAGGUUUAUCGAAUUUUCGGCGGAUGCCUCCAAA [G7U A14G G40U] | < 1e-05 | – | – | < 1e-05 |

| Variant | self-cleavage kobs at 640 uM GlcN6P [1] [s⁻¹] | self-cleavage kobs at 160 uM GlcN6P [2] [s⁻¹] | self-cleavage kobs at 10000 uM GlcN6P [3] [s⁻¹] | self-cleavage kobs at 2500 uM GlcN6P [4] [s⁻¹] |
| --- | --- | --- | --- | --- |
| AUAAAAGAGCCAGAUCUACAGAAAUGUAGUUGACAAGGAGGAGGUUUAUCGAAUUUUCGGCGGAUGCAUCCAAA [C8A A15U G35A C68A] | < 1e-05 | – | – | – |
| AUAAAAUCGCCAGAACUACAGAAAUGUAGUUGACGAGGAGGAGGUUUAUCGAAUUUUCGGCGGCGGCCUCCAAA [G7U A64C U65G] | < 1e-05 | – | < 1e-05 | – |
| AUAAAAUCGCCAGAACUACAGAAAUGUAGUUGACGAGGAGGAGGUUUAUCGAAUUUUCGGCAUAUGCCUCCAAA [G7U G62A G63U] | < 1e-05 | < 1e-05 | – | – |
| AUAAAACCGCCAGAACUACAGAAAUGUAGUAGACGAGGAGGAGGUUUAUCGCAUUUUCGGCGGAUGCCUCCAAA [G7C U31A A52C] | < 1e-05 | < 1e-05 | – | – |
| AUAAAAGAGCCAGAAGUACAGAAAUGUAGUUGACGAGGAGGAGGUUUAUUGCAUUUUCGGCGGAUGCCUCCAAA [C8A C16G C50U A52C] | < 1e-05 | < 1e-05 | – | – |
| AUAAAAUCGCCAGAACUACAGAAAUGUAGUUGACGAGGAGGGAUUUUAUCGAAUUUUCGGCGGAUGCCUCCAAA [G7U A42G G43A G44U] | < 1e-05 | < 1e-05 | – | – |
| AUAAAACCGCCAGAACUACAGAAAUGUAGUUGACGAGGAGGAGGUUUAUCGAAUCUUCGCCGGAUGCCUCCAAA [G7C U55C G60C] | < 1e-05 | < 1e-05 | – | – |
| AUAAAAUAGCCAGAACUACAGAAAUGUAGUUGACAAGGAGGAGGUUUAUCGAAUCUUCGGCGGAUGCCUCCAAA [G7U C8A G35A U55C] | < 1e-05 | – | – | – |
| AUAAAAGAGCCAGAAUUACAGAAAUGUAGUUGACGAGGAGGAGGUUUAUCGAAUUUUCGGCGGAUGCAUCCAAA [C8A C16U C68A] | < 1e-05 | < 1e-05 | – | < 1e-05 |
| AUAAAAGAGCCAGAAAUACAGAAAUGUAGUUGACGAGGAGGAGGUUUAUCGAAUUUUCGGCGGAUGCCUCCAAA [C8A C16A] | < 1e-05 | – | < 1e-05 | – |
| AUAAAAUCGCCAGAACUACAGAAAUGUAGUUGACGAGGAGGAGGUUUAUCGAAUUCUCGGCGGAUGCCUCCAAA [G7U U56C] | < 1e-05 | < 1e-05 | < 1e-05 | < 1e-05 |
| AUAAAAUCGCCAGAACUACAGAAAUGUAGUUGACGAGGAGCAGGUUUAUCGAAUUUUAGGCGGAUGCCUCCAAA [G7U G41C C58A] | < 1e-05 | – | – | < 1e-05 |
| AUAAAAGAGCCAGAACUACAGAAAUGUAGUUGAUGAGGAGGAGGUUUAUCGAAUCUUCGGCGGAUGCCUCCAAA [C8A C34U U55C] | < 1e-05 | < 1e-05 | – | – |
| AUAAAAUCGCCAGAAUUACAGAAAUGUAGUUGACCAGGAGCCGGGUUAUCGAAUUUUCGGCGGAUGCCUCCAAA [G7U C16U G35C G41C A42C U45G] | < 1e-05 | – | – | – |
| AUAAAACCGCCAGAACUACAGAAAUGUAGUUGACGAGGAGGAGGUUUAUCGAACUUUCGGCGGCUGCCUCCAAA [G7C U54C A64C] | < 1e-05 | – | – | < 1e-05 |
| AUAAAACCGCCAGAACUACAGAAAUGUAGUUGACAAGGAGGAGGUUUAUCGAAUUUUCGACGGAUGCCUCCAAA [G7C G35A G60A] | < 1e-05 | – | – | – |
| AUAAAAGAGCCAGAACUACAGAAAUGUAGUUGGCGAGGAGGCGGUUUCUCGAAUCUUCGGCGGAUGCCUCCAAA [C8A A33G A42C A48C U55C] | < 1e-05 | – | – | – |
| AUAAAAUCCCCAAAACUACAGAAAUGUAGUUGACGGUGAGGAGGUUUACCGAAUUUUCGGCGUAUGCCUCCAAA [G7U G9C G13A A36G G37U U49C G63U] | < 1e-05 | – | – | < 1e-05 |
| AUAAAAUCGCCAGAACUACAGAAAUGUAGAUGACGAGGAGGAGGUUUAUCAAAUUUUCGGCGGAUGCCUCCAAA [G7U U30A G51A] | < 1e-05 | – | – | – |
